{
  "source": "PubChem BioAssay AID1476",
  "about": "(National Center for Advancing Translational Sciences (NCATS), 2009)",
  "note": "Screen size: about 200,000 compounds; about 4,500 (2.2%) were called active. The shares of active, inactive and inconclusive entries below differ from those in the screen. Calls come from the whole dose curve; as a rule, active = well fitted inhibition curve with a large enough effect; inconclusive = small, poorly fitted or top-dose-only effect, or effect the other way; inactive = flat fitted curve, though single readings scatter. Potencies beside an inconclusive call are fits to weak or partial responses and may not hold up. Potency is the fitted concentration of half-maximal effect; tags give direction and shape of the fitted curve.",
  "data": [
    {"molecular_target": "Cruzipain (Trypanosoma cruzi) (UniProt P25779)", "sequence (P25779 whole entry, looked up)": "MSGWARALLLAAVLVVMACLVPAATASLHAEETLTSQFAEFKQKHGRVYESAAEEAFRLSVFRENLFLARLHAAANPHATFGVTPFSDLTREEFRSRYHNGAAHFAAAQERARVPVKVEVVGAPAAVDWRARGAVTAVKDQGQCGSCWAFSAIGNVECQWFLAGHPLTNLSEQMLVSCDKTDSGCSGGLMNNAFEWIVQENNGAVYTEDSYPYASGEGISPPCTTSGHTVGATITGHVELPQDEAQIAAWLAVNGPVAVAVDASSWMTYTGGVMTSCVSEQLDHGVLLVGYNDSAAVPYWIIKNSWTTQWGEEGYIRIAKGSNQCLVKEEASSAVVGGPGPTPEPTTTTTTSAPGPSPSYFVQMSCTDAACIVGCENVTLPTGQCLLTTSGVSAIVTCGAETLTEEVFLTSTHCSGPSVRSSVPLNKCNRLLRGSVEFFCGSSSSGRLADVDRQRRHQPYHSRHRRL", "assay": "qHTS Assay for Promiscuous and Specific Inhibitors of Cruzain (without detergent); note: nearly all actives have a fitted effect of over 40% in size;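 for max response, negative = inhibition: plate controls were enzyme without inhibitor for no effect and buffer without enzyme for full effect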", "conditions": "purified cruzain, Z-FR-AMC fluorescence, no detergent", "outline": "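Detergent-free condition (0.00005% Triton X-100) in acetate buffer pH 5.5 with DTT. 1.5 nM enzyme and compound were pre-mixed 15 min, then 2 uM Z-FR-AMC substrate added; reaction progress from fluorescence change between first and third reads (60 s).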", "values": [
      {"smiles": "COc1ccc(C2=C(C)C(=O)N(Cc3ccc(C(=O)NCc4ccccc4C)cc3)S2(=O)=O)cc1", "Potency": "inconclusive: 39.8 µM [inhibitor, single point]"},
      {"smiles": "COc1ccc(NC(=O)Nc2nnc(SCC(=O)Nc3cccc(C)c3C)s2)cc1", "max response, negative = inhibition": "inactive: -10.3%"},
      {"smiles": "Cc1onc(-c2ccccc2Cl)c1C(=O)Nc1cccc(-c2cn3cccnc3n2)c1", "Potency": "inconclusive: 39.8 µM [activator, single point]"},
      {"smiles": "O=C1C(C=NCc2ccncc2)=C(O)c2ccccc21", "max response, negative = inhibition": "inactive: 1.47%"},
      {"smiles": "COc1cc(C(=O)Oc2ccccc2/C=N/NC(=O)c2ccc(C)cc2)cc(OC)c1OC", "Potency": "inconclusive: 25.1 µM [activator, single point]"},
      {"smiles": "Cc1cc(C=C2C(=O)c3ccccc3C2=O)c(C)n1-c1ccc(Cl)cc1", "Potency": "inconclusive: 39.8 µM [inhibitor, single point]"},
      {"smiles": "Cc1cccc(-c2noc(-c3cccnc3NCc3ccccc3Cl)n2)c1", "max response, negative = inhibition": "inactive: -23.5%"},
      {"smiles": "CCC(=O)Nc1cccc(NC(=O)COc2ccc(OC)cc2)c1", "max response, negative = inhibition": "inactive: 4.81%"},
      {"smiles": "CN(C)CCCNc1oc(-c2ccc(Cl)cc2)nc1C#N", "Potency": "inconclusive: 20 µM [inhibitor, single point]"},
      {"smiles": "Cc1ccc(NC(=O)NC2CCCCC2)c(C)c1", "Potency": "inconclusive: 39.8 µM [inhibitor, single point]"},
      {"smiles": "Cc1nc(Oc2ccccc2)c2oc3ccccc3c2n1", "Potency": "inconclusive: 39.8 µM [activator, single point]"},
      {"smiles": "CCCCn1c(-c2ccc(Cl)cc2)nc2c(=O)n(C)c(=O)[nH]c21", "max response, negative = inhibition": "inactive: 4.82%"},
      {"smiles": "Fc1ccc(Nc2nc(SCc3ccc(Cl)cc3)nc3ccccc23)cc1", "Potency": "inconclusive: 39.8 µM [inhibitor, single point]"},
      {"smiles": "CCOc1ccc(NS(=O)(=O)c2ccc3[nH]cc(C(=O)N4CCCC4)c(=O)c3c2)cc1", "max response, negative = inhibition": "inactive: -4.79%"},
      {"smiles": "COc1cccc(Cn2c(=O)c(-c3cccs3)nc3cnc(OC)nc32)c1", "max response, negative = inhibition": "inactive: 11.7%"},
      {"smiles": "CNS(=O)(=O)c1ccc(NC(=O)c2nc3nc(C)cc(C(F)F)n3n2)cc1", "Potency": "inconclusive: 31.6 µM [activator, single point]"},
      {"smiles": "NCCOB(c1ccccc1)c1ccccc1", "Potency": "inconclusive: 39.8 µM [activator, single point]"},
      {"smiles": "CCc1ccccc1N1CC(c2nc3ccccc3n2CCCCOc2ccccc2OC)CC1=O", "note": "(centres undefined)", "Potency": "inconclusive: 25.1 µM [activator, partial curve]"},
      {"smiles": "Cc1cc(C(=O)CSc2nnc(-c3ccncc3)n2-c2ccccc2)c(C)n1C", "Potency": "inconclusive: 31.6 µM [activator, single point]"}
    ]}
  ]
}
